# Reference: the RNAGym collection of RNA variant scans (doi:10.7554/elife.90254)
# Read counts are not given, so values of variants with three or more changes are uncertain.
# B1: LINE1-mini (parent)
# chain: GGCAGAGCUCAACACAGCGUGGCAAAGUGGCUGUGGCUAGACUGCC
# Variants of: B1
# Experiment: self-cleavage, relative activity (ratio to wild type); higher = more cleavage; in vitro, sequencing; the parent is a self-cleaving ribozyme
row,Variant,self-cleavage
1,C3A A16C A24G U32A C42A,0.28
2,G19C C23G U28C G36A,0.02
3,U9G A16U G27U,0.07
4,G5A G22U C23A,0.05
5,A6C C10G C23G A26U,0.03
6,G2A A4C G7A C31U G36U,0.17
7,A16C G36A G40A,0.02
8,G1C A14U G21C U34C,0.01
9,U43G C45A C46U,0.02
10,C18U G19U U34A,0.02
11,G1C A26U U32C U43C,0.03
12,G22A G27A U38G,0.02
13,G2C G5U C10A,0.01
14,A14G A26U G29A,0.09
15,G7U C8G C45G,0.06
16,G30C U32A G33U,0.05
17,G1U A6U U34A G36U,0.02
18,A12U G36U C37G,0
19,G7A C18U C23A G29A C31U,0.03
20,G5A G29A C45U,0.02
21,G17C G30U C31A G33A,0.01
22,A6G U9C A26G,0.03
23,A4C G5A U20A U38A U43A,0
24,C8A C15U G22A G27A,0.6

row,Variant,self-cleavage
1,C3A C13U A24G G40U,0.57
2,A11C A24C A26C C31A,0.03
3,C10G C15A C42U,0.02
4,C10A G30U U38C,0.06
5,A4C G27A G33U,0.02
6,G2C C31A C37U U38G A39U,0.12
7,A4G C10U U38A G44A,0.03
8,A4C G22A C23A G30A U38G,0.02
9,A11U G36A G40U,0
10,C3U C37G U38A,0.12
11,A12G A14C C46U,0.01
12,C15A C18G G27U G36U,0.09
13,A4U A6G U9G G21A U43C,0.17
14,G21U C37A C45G C46G,0.05
15,G1C G7U A16C G33U C37G G40U,0.01
16,C10U A14U C37U C45A,0.07
17,C10G U28G G35A,0.04
18,A12G U28G C45U,0.12
19,C15G C18U G22A U28A A41U C46G,0.03
20,A6G A11C A14G U34C,0.06
21,C10A G29A G44U,0.06
22,G5A C13U G22U U34C,0.19
23,C8G A41U G44U,0.3
24,G17U G40U G44C,0.03

row,Variant,self-cleavage
1,G1U C3G U34C C37G,0.11
2,C15A G21U A26U G35C C46A,0.03
3,G17U C18A A24U A26U G27C G40U,0.05
4,G5U G27C U32G A41C,0.03
5,G5U G36A G40C,0.03
6,C8G A14G G21C A24G G44U,0.04
7,A4C A11G C15A G21C G27A,0.02
8,A6U C15G A26G,0.01
9,A6G G19C A26C G30A G36A U38G G40A,0.02
10,A6U C13A A16U G22U C23A C31A G40U,0.12
11,G19C G35A C42U,0
12,A6U G7A G22U,0.02
13,C15U A39U G44U,0.41
14,C3U C18A G30A A39G,0.08
15,G21A U38C A41C C42U,0.06
16,U20G G21A G40U C42A,0.13
17,A12C G29A C42U,0.01
18,A26C C45U C46A,0.78
19,C18A U20G A41U,0.43
20,C3A A16G A25G,0.07
21,G5A A12C A14U,0.12
22,G5C G7C G17A,0.01
23,A12C C23A C45G,0.03
24,A6C G27U U34A,0.05

row,Variant,self-cleavage
1,G2A A16U U28C,0.59
2,G7U C8G C13A G19U G44A,0.09
3,C37A A41U C42U C45U,0.02
4,G1U C8A C42A,0.12
5,G22A C31A G44U C45U,0.03
6,G21U A24G C45U,0.17
7,A6U C15A G17C G33U,0.02
8,G7U C15G G33U G44C,0.02
9,G1A G22U G40C C45U,0.05
10,G2A G21U C45A,1.76
11,G1C A4U C15G C23G G30U,0.02
12,G17C C23G C37U,0.06
13,C10A U32G U43A,0.06
14,G30C C31G C45U,0.07
15,C3G A14C C18G G19C G22C G33C C46U,0.03
16,C3U C13U U20A,0.16
17,G33C U34G C42U,0.02
18,C18A G21A G22U A25G G27A A41G,0.16
19,C3A C10A C37A,0.01
20,A4U G35U C42G,0.15
21,G7A G35A C45G,0.18
22,G19U G36U U38G,0.03
23,G2C C18G A26C U43C,0.04
24,G33A A41C C45A,0.04

row,Variant,self-cleavage
1,A11G C13G C18U,0.01
2,A11G A14C G29A G40U,0.01
3,C8U A16C G17U A41U,0.18
4,G5C A16C G33C A39U,0.13
5,C3G A6U C15A U38C,0.1
6,A4G G27U U32A G33U A39C,0.1
7,U32G U34C C42G,0.1
8,C10G A25G C31A,0.05
9,A6G U38G G44U,0.02
10,G5A G33C C42G,0.03
11,A4U A6C U34G U43A,0.01
12,C3G C18A A39U,0.04
13,G5A A6U G22U C45A,0.15
14,A24U G30C C46A,1.97
15,C3U G5C A14U G35C C45G,0.06
16,G2A A6U G33A,0.11
17,G1U C15U A26C,0.12
18,U9G G30C U34A G44A C45A,0
19,G22C G29C A39G,0.08
20,U9G C31U G36C,0.06
21,G1U G7A G22U A25C G27A U34A C42U,0.04
22,G7C C18A G27C G30C,0.04
23,G5U G21C G30C,0.08
24,C3A G5U U9A,0.12

row,Variant,self-cleavage
1,C18A C23U G30A U32A C45U,0.06
2,C3U A14C U32G,0.03
3,G1C G5C A11C C18U,0.01
4,C3A A12G U34C C42A,0.89
5,G7A A14U G19C C37A,0.02
6,A4G G21C G44U,0.14
7,C23A G29A C42A,0.18
8,C13G A24U A26G,0.05
9,C8G C13U G21C A39C,0.3
10,G21C A24U A26G G44U,0.31
11,C13U G17U A24G C45A,0.01
12,A14C G35A C46U,0
13,C3U C13A A14G A24G A26C G44U C46U,0.06
14,G2C C3U G7A G19U G30A U32G A39U,0.15
15,C15U A16U G19A G36A,0.19
16,G36C G44U C46G,0.14
17,G5U A6G C13G G22U G29A,2.9
18,A4U G36C A39G,0.04
19,A12U C18A A25C G27A G33A C46A,0.02
20,G1C G5A G30C,0.01
21,A6G C10G A24U G30A,0
22,U28A G40U C42G C45G,0.01
23,G5A G7U G33A,0.1
24,A16U G19U U43C,0.01

row,Variant,self-cleavage
1,A25U A26G G33A,0.02
2,C10U A11G G33U U34G,0.02
3,A6C A16C G17U G27C,0.04
4,C3U G5C G40C,0.08
5,G1A A11U C23A,0.09
6,C13G A14U G17U U34C,0.06
7,G7U U9A G19C U28C U43C,0.02
8,G1C C15G U28G,0.01
9,G5C C8G A11C,0.01
10,G2U U9G C13A C15G G19U G27U G33A,0.01
11,C3U G27A U28G,0.14
12,G21U C37A A39U,0.02
13,A6G G36A A41C,0.04
14,C10U C13A A14G,0.02
15,G7C A11C G22C A24G G35C,0.01
16,G1U U9A G44U,0.05
17,G2A C8G A24C U34G G44A,0.02
18,A4G C8U A14G G30C,0.47
19,A6C C8U G40U,0.3
20,C8A A11G A16U,0.03
21,G2U A12C C23U G27U U32G,0.02
22,U20C C23A G29U U34A G40A,0
23,G33U G40U C45U,0.07
